Measured values: patent EP4563146A1 (IRBM S.P.A., priority 2023, dated 2025)
pIC50: −log10 of the molar value.

target: ZIKV NS2B-G4SG4-NS3 serine protease (Zika virus, UniProt A0A024B7W1, R1467A/R1531G); assay: ZIKV protease inhibition assay; assay type: biochemical; conditions: not given

SMILES	pIC50
CN(C)C[C@H]1CC[C@H]([n+]2cc([N-]C(=O)Nc3cc(NC(=O)[C@@H](F)c4ccccc4F)cc(C(F)(F)F)c3)on2)CC1 (single isomer, unassigned) [Example 243]	> 7.00
CN(C)C[C@H]1CC[C@H]([n+]2cc([N-]C(=O)Nc3cc(NC(=O)[C@H](F)c4ccccc4F)cc(C(F)(F)F)c3)on2)CC1 (single isomer, unassigned) [Example 271]	> 7.00
N[C@H]1C[C@H]([n+]2cc([N-]C(=O)Nc3cc(NC(=O)Cc4ccccc4)cc(C(F)(F)F)c3)on2)C1 [Example 26, (3-((1R,3R)-3-Aminocyclobutyl)-1,2,3-oxadiazol-3-ium-5-yl)((3-(2-phenylacetamido)-5-(trifluoromethyl)phenyl)carbamoyl)amide]	6.00 to 7.00
CN(C)[C@H]1C[C@H]([n+]2cc([N-]C(=O)Nc3cc(NC(=O)Cc4ccccc4)cc(C(F)(F)F)c3)on2)C1 [Example 55, (3-((1R3R)-3-(Dimethylamino)cyclobutyl)-1,2,3-oxadiazol-3-ium-5-yl)((3-(2-phenyl-acetamido)-5-(trifluoromethyl)phenyl)-carbamoyl)amide]	6.00 to 7.00
NC[C@H]1CC[C@@H]([n+]2cc([N-]C(=O)Nc3cc(NC(=O)Cc4ccccc4)cc(C(F)(F)F)c3)on2)CC1 [Example 59, (3-((1S,4S)-4-(Aminomethyl)cyclohexyl)-1,2,3-oxadiazol-3-ium-5-yl)((3-(2-phenyl-acetamido)-5-(trifluoromethyl)phenyl)-carbamoyl)amide]	> 7.00
O=C(Cc1ccccc1)Nc1cc(NC(=O)[N-]c2c[n+]([C@H]3CC[C@@H](CN4C(=O)c5ccccc5C4=O)CC3)no2)cc(C(F)(F)F)c1 [Example 60, (3-((1S,4S)-4-((1,3-Dioxoisoindolin-2-yl)methyl)cyclohexyl)-1,2,3-oxadiazol-3-ium-5-yl)((3-(2-phenylacetamido)-5-(trifluoromethyl)-phenyl)carbamoyl)amide]	6.00 to 7.00
CN(C)C[C@H]1CC[C@@H]([n+]2cc([N-]C(=O)Nc3cc(NC(=O)Cc4ccccc4)cc(C(F)(F)F)c3)on2)CC1 [Example 61, (3-((1S,4S)- -4-((Dimethylamino)methyl)cyclohexyl)-1,2,3-oxadiazol-3-ium-5-yl)((3-(2-phenylacetamido)-5-(trifluoromethyl)phenyl)carbamoyl)amide]	> 7.00
CC(=O)NC[C@H]1CC[C@@H]([n+]2cc([N-]C(=O)Nc3cc(NC(=O)Cc4ccccc4)cc(C(F)(F)F)c3)on2)CC1 [Example 62, (3-((1S,4S)-4-(Acetamidomethyl)cyclohexyl)-1,2,3-oxadiazol-3-ium-5-yl)((3-(2-phenylacetamido)-5-(trifluoromethyl)phenyl)carbamoyl)amide]	> 7.00
N[C@H]1CC[C@@H]([n+]2cc([N-]C(=O)Nc3cc(NC(=O)Cc4ccccc4)cc(C(F)(F)F)c3)on2)CC1 [Example 91, (3-((1S,4S)-4-Aminocyclohexyl)-1,2,3-oxadiazol-3-ium-5-yl)((3-(2-phenylacetamido)-5-(trifluoromethyl)phenyl)carbamoyl)amide]	6.00 to 7.00
N[C@H]1CC[C@H]([n+]2cc([N-]C(=O)Nc3cc(NC(=O)Cc4ccccc4)cc(C(F)(F)F)c3)on2)CC1 [Example 92, (3-((1R,4R)-4-Aminocyclohexyl)-1,2,3-oxadiazol-3-ium-5-yl)((3-(2-phenylacetamido)-5-(trifluoromethyl)phenyl)carbamoyl)amide]	> 7.00
NC[C@H]1CC[C@H]([n+]2cc([N-]C(=O)Nc3cc(NC(=O)Cc4ccccc4)cc(C(F)(F)F)c3)on2)CC1 [Example 93, (3-((1R,4R)-4-(Aminomethyl)cyclohexyl)-1,2,3-oxadiazol-3-ium-5-yl)((3-(2-phenyl-acetamido)-5-(trifluoromethyl)phenyl)-carbamoyl)amide]	> 7.00
CN(C)[C@H]1CC[C@@H]([n+]2cc([N-]C(=O)Nc3cc(NC(=O)Cc4ccccc4)cc(C(F)(F)F)c3)on2)CC1 [Example 95, (3-((1S,4S)-4-(Dimethylamino)cyclohexyl)-1,2,3-oxadiazol-3-ium-5-yl)((3-(2-phenylacetamido)-5-(trifluoromethyl)phenyl)-carbamoyl)amide]	6.00 to 7.00
CN(C)[C@H]1CC[C@H]([n+]2cc([N-]C(=O)Nc3cc(NC(=O)Cc4ccccc4)cc(C(F)(F)F)c3)on2)CC1 [Example 96, (3-((1R,4R)-4-(dimethylamino)cyclohexyl)-1,2,3-oxadiazol-3-ium-5-yl)((3-(2-phenylacetamido)-5-(trifluoromethyl)phenyl)-carbamoyl)amide]	> 7.00
NC[C@H]1CC[C@@H]([n+]2cc([N-]C(=O)Nc3cc(N4CCC(c5ccccc5)C4=O)cc(C(F)(F)F)c3)on2)CC1 (stereo partly drawn) [Example 119, (3-((1S,4S)-4-(Aminomethyl)cyclohexyl)-1,2,3-oxadiazol-3-ium-5-yl)((3-(2-oxo-3-phenylpyrrolidin-1-yl)-5-(trifluoromethyl)phenyl)-carbamoyl)amide]	> 7.00
N[C@H]1CC[C@@H](C[n+]2cc([N-]C(=O)Nc3cc(N4CCC(c5ccccc5)C4=O)cc(C(F)(F)F)c3)on2)CC1 (stereo partly drawn) [Example 131, (3-(((1S,4S)-4-Aminocyclohexyl)methyl)-1,2,3-oxadiazol-3-ium-5-yl)((3-(2-oxo-3-phenylpyrrolidin-1-yl)-5-(trifluoromethyl)-phenyl)carbamoyl)amide]	6.00 to 7.00

same assay, conditions: read-out: Zika - NS3 protease; 1.25 nM enzyme, 10 µM Bz-Nle-KRR-AMC substrate, 25 °C

SMILES	pIC50
COc1ncc(-c2ccc(C[n+]3cc([N-]C(=O)Nc4cc(NC(=O)CC5CCCCC5)cc(C(F)(F)F)c4)on3)cc2)c(C)n1 [Example 8]	> 7.00
COc1ncc(-c2ccc(C[n+]3cc([N-]C(=O)Nc4cc(NC(C)=O)cc(C(F)(F)F)c4)on3)cc2)c(C)n1 [Example 11]	> 7.00
COc1ncc(-c2ccc(C[n+]3cc([N-]C(=O)Nc4cc(NC(=O)c5ccccc5)cc(C(F)(F)F)c4)on3)cc2)c(C)n1 [Example 15]	> 7.00
COc1ncc(-c2ccc(C[n+]3cc([N-]C(=O)Nc4cc(NC(=O)Cc5ccc(Cl)cc5)cc(C(F)(F)F)c4)on3)cc2)c(C)n1 [Example 17]	6.00 to 7.00
COc1ncc(-c2ccc(C[n+]3cc([N-]C(=O)Nc4cc(NC(=O)C5CCCC5)cc(C(F)(F)F)c4)on3)cc2)c(C)n1 [Example 18]	> 7.00
COc1ncc(-c2ccc(C[n+]3cc([N-]C(=O)Nc4cc(NC(=O)Cc5noc6ccccc56)cc(C(F)(F)F)c4)on3)cc2)c(C)n1 [Example 20]	> 7.00
COc1ncc(-c2ccc(C[n+]3cc([N-]C(=O)Nc4cc(NC(=O)Cc5ccc(CN)cc5)cc(C(F)(F)F)c4)on3)cc2)c(C)n1 [Example 22]	> 7.00
CC(C(=O)Nc1cc(NC(=O)[N-]c2c[n+](Cc3ccccn3)no2)cc(C(F)(F)F)c1)c1ccccc1 (centres unmarked) [Example 32]	> 7.00
Cc1oc(-c2ccccc2)nc1CC(=O)Nc1cc(NC(=O)[N-]c2c[n+](Cc3ccccn3)no2)cc(C(F)(F)F)c1 [Example 33]	4.70 to 6.00
O=C(Cc1c[nH]c2cccnc12)Nc1cc(NC(=O)[N-]c2c[n+](Cc3ccccn3)no2)cc(C(F)(F)F)c1 [Example 36]	> 7.00
N#Cc1ccc2nc(C(=O)Nc3cc(NC(=O)[N-]c4c[n+](Cc5ccccn5)no4)cc(C(F)(F)F)c3)cn2c1 [Example 37]	6.00 to 7.00
CN1Cc2cc(C(=O)Nc3cc(NC(=O)[N-]c4c[n+](Cc5ccccn5)no4)cc(C(F)(F)F)c3)sc2C1 [Example 39]	6.00 to 7.00
Cn1ccc(CC(=O)Nc2cc(NC(=O)[N-]c3c[n+](Cc4ccccn4)no3)cc(C(F)(F)F)c2)n1 [Example 40]	4.70 to 6.00
O=C(CS(=O)(=O)c1ccccc1)Nc1cc(NC(=O)[N-]c2c[n+](Cc3ccccn3)no2)cc(C(F)(F)F)c1 [Example 43]	> 7.00
O=C([N-]c1c[n+](Cc2ccccn2)no1)Nc1cc(NC(=O)C2CC2c2ccccc2)cc(C(F)(F)F)c1 (centres unmarked) [Example 50]	> 7.00
O=C([N-]c1c[n+](Cc2ccccn2)no1)Nc1cc(NC(=O)c2cc3n(n2)CCS(=O)(=O)C3)cc(C(F)(F)F)c1 [Example 64]	6.00 to 7.00
O=C([N-]c1c[n+](Cc2ccccn2)no1)Nc1cc(NC(=O)C23CCC(O)(CC2)C3)cc(C(F)(F)F)c1 [Example 66]	6.00 to 7.00
Cc1cccc2c1OCC2C(=O)Nc1cc(NC(=O)[N-]c2c[n+](Cc3ccccn3)no2)cc(C(F)(F)F)c1 (centres unmarked) [Example 67]	4.70 to 6.00
O=C([N-]c1c[n+](Cc2ccccn2)no1)Nc1cc(NC(=O)[C@H]2C[C@](O)(c3ccccn3)C2)cc(C(F)(F)F)c1 [Example 69]	6.00 to 7.00
N#Cc1ccn(C2(C(=O)Nc3cc(NC(=O)[N-]c4c[n+](Cc5ccccn5)no4)cc(C(F)(F)F)c3)CC2)n1 [Example 71]	6.00 to 7.00
O=C(CCOC1CCCC1)Nc1cc(NC(=O)[N-]c2c[n+](Cc3ccccn3)no2)cc(C(F)(F)F)c1 [Example 73]	6.00 to 7.00
O=C([N-]c1c[n+](Cc2ccccn2)no1)Nc1cc(NC(=O)C(F)(F)CN2CCCC2)cc(C(F)(F)F)c1 [Example 76]	6.00 to 7.00
O=C([N-]c1c[n+](Cc2ccccn2)no1)Nc1cc(NC(=O)C2CN(C3CC3)C2)cc(C(F)(F)F)c1 [Example 77]	6.00 to 7.00
O=C([N-]c1c[n+](Cc2ccccn2)no1)Nc1cc(NC(=O)c2ccc3c(n2)CCO3)cc(C(F)(F)F)c1 [Example 79]	6.00 to 7.00
O=C([N-]c1c[n+](Cc2ccccn2)no1)Nc1cc(NC(=O)C2(Oc3ccc(Cl)cc3)COC2)cc(C(F)(F)F)c1 [Example 83]	4.70 to 6.00
O=C([N-]c1c[n+](Cc2ccccn2)no1)Nc1cc(NC(=O)C2CCCC3(CCOC3)O2)cc(C(F)(F)F)c1 (centres unmarked) [Example 84]	6.00 to 7.00
O=C([N-]c1c[n+](Cc2ccccn2)no1)Nc1cc(NC(=O)C2CS(=O)(=O)CCO2)cc(C(F)(F)F)c1 (centres unmarked) [Example 88]	4.70 to 6.00
O=C(Cc1ccccc1)Nc1cc(NC(=O)[N-]c2c[n+](CC3CCNCC3)no2)cc(C(F)(F)F)c1 [Example 120]	> 7.00
CN1CCCCC1C[n+]1cc([N-]C(=O)Nc2cc(NC(=O)Cc3ccccc3)cc(C3CC3)c2)on1 (centres unmarked) [Example 127]	> 7.00
